Data as given in PubChem BioAssay AID1345083 (National Center for Advancing Translational Sciences (NCATS), 2018).
About 6,200 (6.6%) of roughly 94,000 compounds were called active. Inconclusive results, whose numbers are uncertain, are shown with a selection of clear calls. Calls come from the whole dose curve; as a rule, active = well fitted inhibition curve with a large enough effect; inconclusive = small, poorly fitted or top-dose-only effect; inactive = flat fitted curve, though single readings scatter. Potencies of inconclusive entries are doubtful fits and often do not repeat.

Experiment: Cytotoxic Profiling in HEK 293 Cell Line of Diverse Libraries Using Quantitative High-Throughput Screening; note: nearly all actives have a fitted effect of over 60% in size
Details: HEK 293 viability, ATP luminescence (CellTiter-Glo), 48-72 h; series mostly up to 115 µM; activity change, negative = cytotoxicity: at the top concentration
In short: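 Read-out: CellTiter-Glo ATP luminescence. Cells: HEK 293, 250 cells/well. Exposure: 48 or 72 hr, 37 degree Celsius.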
% is set by controls: 0 for no effect and ±100 for the full control effect; potency is the fitted concentration of half-maximal effect; tags give direction and shape of the fitted curve.

Compound	Potency	activity change, negative = cytotoxicity	outcome
COc1cc2c(cc1CCc1ccccc1)N([S+](=O)([O-])c1ccc3c(c1)CCO3)CC21CCN(C(C)=O)CC1	inconclusive: 31.6 µM [inhibitor, full curve]	–	–
C=C[C@H]1CN2CC[C@H]1C[C@@H]2CNCc1ccc(OC(F)(F)F)cc1	inconclusive: 100 µM [inhibitor, partial curve, poor fit]	–	–
O=C(O)c1cn(Cc2ccc(F)cc2)nn1	–	inactive: 4.01%	–
O=C(Nc1ccc(=O)n2c1[C@@H]1C[C@@H](CN(S(=O)(=O)c3ccccc3)C1)C2)c1cccnc1	inconclusive: 20 µM [inhibitor, full curve, poor fit]	–	–
Cc1noc(C)c1C(=O)N1C2CCC1CN(C(C)C)C2	–	inactive: -24.9% [at 172 µM]	–
CC[C@H]1CN2CC[C@H]1C[C@@H]2COC(=O)Nc1cc(OC)cc(OC)c1	active: 100 µM	–	–
CCC(CC)c1cc([C@H]2CN3CC[C@H]2C[C@@H]3CNC(=O)c2ccco2)nc(-c2ccncc2)n1	–	inactive: -3.53%	–
CC[C@H]1CN2CC[C@H]1C[C@@H]2CNCc1ccc(-c2ccccc2)cc1	active: 25.1 µM	–	–
O[C@H]1[C@H](NC2CCOCC2)[C@@H](C2CCCCC2)C[C@H]1O	–	inactive: -8.8% [at 230 µM]	–
COC1CN(c2ccc(C)cc2)C12CCNCC2 (configuration not stated)	inconclusive: 89.1 µM [inhibitor, single point]	–	–
CCCCc1cn(C[C@H]2CC3CCN2C[C@@H]3C(=O)NCc2ccco2)nn1 (some centres not stated)	–	inactive: -22.1% [at 172 µM]	–
O=C(c1cccs1)N1[C@H]2CC[C@@H]1c1cnc(-c3ccc(F)cc3)nc1C2	inconclusive: 31.6 µM [inhibitor, partial curve, poor fit]	–	–
CSc1ccc(-c2ccc(=O)n3c2[C@@H]2C[C@@H](CN(S(=O)(=O)c4cccs4)C2)C3)cc1	inconclusive: 89.1 µM [inhibitor, single point]	–	–
CN1C[C@@H]2OCC(=O)N[C@@H]2C1	–	–	inactive [at 345 µM]
C=CCN(C)C(=O)[C@H]1CN2CCC1C[C@@H]2Cn1cc(-c2ccc(C(C)(C)C)cc2)nn1 (some centres not stated)	active: 100 µM	–	–
CN1Cc2ccccc2-n2ccnc2C12CCN(C(=O)C1CCC1)CC2	–	inactive: 11.8%	–
O=C(NC[C@H]1C[C@@H]2CCN1C[C@@H]2CN1CCCCC1)c1ccc(C(F)(F)F)cc1	inconclusive: 44.7 µM [inhibitor, partial curve]	–	–
COc1cc2c(cc1Oc1ccccc1)NC(=O)C21CCN(C(=O)c2cccnc2)CC1	active: 56.2 µM	–	–
O=C(NCc1ccc(F)cc1)[C@H]1CN2CCC1C[C@@H]2Cn1cc(CSc2ccccc2)nn1 (some centres not stated)	inconclusive: 79.4 µM [inhibitor, partial curve]	–	–
CSc1cccc(NC(=O)NC[C@H]2C[C@@H]3CCN2C[C@@H]3CN2CCSCC2)c1	inconclusive: 112 µM [inhibitor, partial curve, poor fit]	–	–
COc1ccccc1C(=O)N1[C@H]2CC[C@@H]1c1cnc(-c3ccccc3)nc1C2	inconclusive: 35.5 µM [inhibitor, partial curve, poor fit]	–	–

Compound	Potency	activity change, negative = cytotoxicity	outcome
CCc1cnc(N2CCC3(CC2)C(=O)Nc2cc(Oc4ccccc4)c(OC)cc23)nc1	active: 44.7 µM	–	–
O=C(NC[C@H]1C[C@@H]2CCN1C[C@@H]2CN1CCN(c2ccc(F)cc2)CC1)c1ccco1	–	inactive: -4.84% [at 172 µM]	–
Cc1ccc(C(=O)N2[C@H]3CC[C@@H]2c2cnc(-c4ccc(F)cc4)nc2C3)cn1	inconclusive: 89.1 µM [inhibitor, single point]	–	–
CCCCc1cn(C[C@H]2CC3CCN2C[C@@H]3C(=O)NCc2ccc3c(c2)OCO3)nn1 (some centres not stated)	–	inactive: -1.95% [at 172 µM]	–
COc1cccc(CC(=O)N2CC3(CCN(C(C)=O)CC3)c3cc(OC)c(CCc4ccccc4)cc32)c1	inconclusive: 50.1 µM [inhibitor, partial curve, poor fit]	–	–
COc1ccc2c(c1)C1(CCN(S(=O)(=O)c3cccc(F)c3)C1)C(=O)N2 (configuration not stated)	inconclusive: 39.8 µM [inhibitor, partial curve, poor fit]	–	–
CN1C(=O)[C@@H]2C[C@@H](O)CN2C2(CN(Cc3cccnc3)C2)C1=O	–	inactive: -10.3% [at 172 µM]	–
CN(C)Cc1ccccc1-c1ccc2n(c1=O)C[C@H]1C[C@@H]2CN(C(=O)c2cccs2)C1	–	inactive: -9.68% [at 172 µM]	–
CN(C)c1ccc(C(=O)NC[C@H]2C[C@@H]3CCN2C[C@@H]3CN2CCOCC2)cc1	–	inactive: 2.45% [at 172 µM]	–
CO[C@@H]1CNC2Cc3c(oc4ccccc34)C1C2 (some centres not stated)	inconclusive: 89.1 µM [inhibitor, single point]	–	–
CC(C)CN1Cc2ccccc2-n2ccnc2C12CCN(C(=O)c1ccccn1)CC2	inconclusive: 79.4 µM [inhibitor, partial curve]	–	–
O=C(c1cccs1)N1[C@H]2CC[C@@H]1c1cnc(-c3ccccc3)nc1C2	inconclusive: 100 µM [inhibitor, single point]	–	–
O=C(Cc1ccc(F)cc1)N1CCN(Cc2ccccc2-c2cccnc2)CC1	inconclusive: 50.1 µM [inhibitor, partial curve, poor fit]	–	–
COc1ccc(-c2cc([C@H]3CN4CC[C@H]3C[C@@H]4CNC(=O)c3ccc(N(C)C)cc3)n(C)n2)cc1	active: 22.4 µM	–	–
Cn1nc(C2CCCCC2)cc1[C@H]1CN2CC[C@H]1C[C@@H]2CN	active: 100 µM	–	–
COc1ccc(-c2cc([C@H]3CN4CC[C@H]3C[C@@H]4CNC(=O)Nc3cccc(C(C)=O)c3)n(C)n2)cc1OC	inconclusive: 56.2 µM [inhibitor, partial curve, poor fit]	–	–
COc1ccc(C(=O)N2CC3(CCN(C)CC3)c3cc(OC)c(OCc4ccccc4)cc32)cn1	active: 79.4 µM	–	–
C#C[C@H]1CN2CC[C@H]1C[C@@H]2CNC(=O)c1ccc(-c2ccccc2)cc1	active: 89.1 µM	–	–
O=C(c1ccccc1)N1C[C@@H]2C[C@H](C1)c1ccc(-c3ccc(Cl)cc3)c(=O)n1C2	inconclusive: 25.1 µM [inhibitor, full curve, poor fit]	–	–
COc1ccc(C(=O)N2[C@H]3CC[C@@H]2c2cnc(C)nc2C3)cc1F	–	inactive: -11.3%	–
CCC(CC)c1cc([C@H]2CN3CC[C@H]2C[C@@H]3CNC2CCN(C(C)=O)CC2)nc(-c2ccncc2)n1	active: 79.4 µM	–	–
